Laboratory results: PubChem BioAssay AID686979 (National Center for Advancing Translational Sciences (NCATS), 2013)
Out of some 420,000 compounds screened, about 50,000 (12%) were called active. Inconclusive results, whose numbers are uncertain, are shown with a selection of clear calls. The call rests on the fitted dose curve; in most records, active means well fitted inhibition curve with a large enough effect; inconclusive means small, poorly fitted or top-dose-only effect; inactive means flat fitted curve, though single readings scatter. No potency is given beside an inconclusive call; the fits are too rough.

Experiment: qHTS for Inhibitors of human tyrosyl-DNA phosphodiesterase 1 (TDP1): qHTS in cells in presence of CPT; further: nearly all actives have a fitted effect of over 55% in size
Conditions: chicken DT40 Tdp1-/-;hTDP1 cells + 20 nM CPT, ATP luminescence, 48 h; activity change, negative = growth inhibition: at 46.2 µM (top of the series) unless noted
Summary of the method: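 Chicken DT40 Tdp1-/- cells stably complemented with human TDP1 were seeded at 400 cells/well in medium containing 20 nM camptothecin, exposed to pin-transferred compounds, and grown at 37 °C for at least 48 hr. Viability was read as ATP luminescence.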
On the % scale 0 is the no-effect control and ±100 the full control effect; potency means the concentration at half of the fitted maximal effect; tags describe the fitted curve by direction and shape.

SMILES | activity change, negative = growth inhibition | Potency
O=C(C(c1ccccc1)c1ccccc1)N1CCN(CC(O)COc2ccccc2)CC1 (stereo not given) | inconclusive: -30.7% [inhibitor] | 
O=C(CSc1nc2ccccc2c(=O)n1-c1ccccc1F)N1CCOCC1 |  | inconclusive [inhibitor, single point]
CC1CC(C)CN(CC(O)COCc2ccccc2)C1 (stereo not given) | inactive: 16.5% | 
CCC(=O)Nc1cc(C)c(O)c(-c2nc3ncccc3o2)c1 | inactive: -29.4% | 
CCn1cc(CN2CCC(n3nccc3NC(=O)c3ccccc3OC)CC2)cn1 | inactive: 4.69% | 
O=C(Nc1ccc2c(c1)OCO2)O[C@@H]1C[C@H]2CCC(=O)N3CC[C@@H](C1)[C@@H]23 |  | inconclusive [inhibitor, single point]
CN(C)c1cccc2c1c(NC(=O)Nc1ccc(F)cc1F)nn2C |  | inconclusive [inhibitor, single point]
CCC(C(=O)Nc1cccc(Cl)c1C)n1nc(-c2ccc(C)cc2)ccc1=O (stereo not given) |  | inconclusive [inhibitor, single point]
CC(=O)Nc1ccc(CNc2nc(NC(C)C)nc3cc(-c4ccccc4)sc23)cc1 |  | active: 3.66 µM
CN(C)c1cc(-c2ccc(C#N)cc2)oc(=O)c1Cl | inactive: 0.828% | 
O=C(NCC1CCCN(C(=O)CN2CCCCC2)C1)c1ccccc1Cl (stereo not given) | inactive: 19.9% | 
Cc1cc(NC(=O)CSc2nnc(C3COc4ccccc4O3)n2N)no1 (stereo not given) |  | inconclusive [inhibitor, single point]
CS(=O)(=O)N(CC(=O)NCc1ccc(Cl)cc1)C1CCCCC1 |  | active: 20.6 µM
Cc1cccc(N2CCN(S(=O)(=O)c3ccc4c(c3)CCCN4C(=O)C3CCC3)CC2C)c1 (stereo not given) |  | inconclusive [inhibitor, single point]
Oc1ccc(Oc2ncc(Cl)cc2Cl)cc1 |  | inconclusive [inhibitor, single point]
COc1ccc(OCC(=O)Nc2ccc3c(c2)nc(CCn2ccccc2=O)n3C)cc1 | inactive: -13% | 
CCC(CC)NC(=O)c1oc2ccccc2c1COc1ccccc1 |  | inconclusive [inhibitor, single point]
Cc1ccc2c(c1)COc1c3ccc(C(=O)NCCO)cc3nn1-2 |  | inconclusive [inhibitor, single point]
O=C(NC1CCCCCC1)c1ccc2c(c1)sc1nc(-c3ccc(F)cc3)cn12 |  | inconclusive [inhibitor, partial curve]
CC(C)c1ccc2[nH]c3c(c2c1)CCC/C3=N\NC(=O)c1ccncc1 |  | active: 23.1 µM
CC(C)N1C(=O)c2ccccc2NC(=O)C1C(=O)NC1CC1 (stereo not given) | inactive: 6.04% | 
CCOC(=O)c1ccc(CN(Cc2ccc(F)cc2)S(=O)(=O)c2cc(C(=O)Nc3cccc(C(F)(F)F)c3)ccc2F)cc1 |  | active: 13 µM
COc1ccc(NC(=O)c2oc3ccccc3c2NC(=O)c2ccc3c(c2)OCO3)cc1 |  | inconclusive [inhibitor, partial curve]
C/C(CC(=O)Nc1ccc(Cl)c(C(F)(F)F)c1)=N\NC(N)=S |  | inconclusive [inhibitor, single point]

SMILES | activity change, negative = growth inhibition | Potency
Cn1c(=O)n(-c2ccc(Br)cc2F)c(=O)c2sc3ccccc3c21 |  | inconclusive [inhibitor, single point]
Cc1ccc(C)c(-n2nnnc2Sc2nc([N+](=O)[O-])nn2C)c1 |  | inconclusive [inhibitor, partial curve, poor fit]
COc1ccc(C)cc1NC(=O)C1CCN(S(=O)(=O)c2cccs2)CC1 | inactive: -2.71% | 
COc1ccc(N2CCN(C3CCCCC3NS(=O)(=O)c3ccc(Cl)cc3)CC2)cc1 (stereo not given) |  | inconclusive [inhibitor, single point]
CC(=O)c1ccc(NC(=O)c2noc3c2CCc2ccccc2-3)cc1 |  | inconclusive [inhibitor, full curve, poor fit]
CCCCN(C=O)c1c(CC)nc2ccc(C(=O)N(C)Cc3ccco3)cn12 | inactive: -10.1% | 
COc1ccc(N2CC(C(=O)N[C@@H](C)C(=O)NCc3ccccc3OC)CC2=O)cc1 (stereo not given in full) | inactive: 4.84% | 
CCCN(CCC)CCNC(=O)C1(O)c2ccccc2NC(=O)N1c1cccc(OC)c1 (stereo not given) | inactive: -0.139% | 
COc1ccccc1-c1sc2ccccc2c1-c1ccc2c(c1)OCCO2 |  | inconclusive [inhibitor, partial curve]
CCN1CCN(C(=O)C2CCC(CNS(=O)(=O)c3ccccc3)CC2)CC1 (stereo not given) | inconclusive: -30.5% [inhibitor] | 
O=C(O)c1cc([N+](=O)[O-])cc2c1C=Cc1ccccc1O2 |  | inconclusive [inhibitor, full curve, poor fit]
CC1(C)O[C@@H]2C[C@H]3[C@@H]4CCC5=CC(=O)CC[C@]5(C)[C@@]4(F)[C@@H](O)C[C@]3(C)[C@]2(C(=O)CCl)O1 |  | inactive
COc1cc(/C=C/C(=O)N2CCCCC2=O)cc(OC)c1OC |  | active: 2.99 µM
Cc1ccc(-n2[nH]c(C)c(/C=N/NC(=O)c3ccc(O)cc3O)c2=O)cc1 |  | active: 11.6 µM
CN(Cc1cccc(-n2cccn2)c1)C(=O)CCc1nnc(C2CCCCC2)o1 | inactive: -4.04% | 
c1ccc(-c2ccccc2OCCCN2CCCCCC2)cc1 |  | inconclusive [inhibitor, single point]
CCOC(=O)c1[nH]c2ccc(F)cc2c1NC(=O)c1cc(OC)c(OC)c(OC)c1 |  | inconclusive [inhibitor, single point]
CCC(=O)Nc1cccc(C(=O)N(Cc2ccccc2)Cc2ccccc2)c1 |  | inconclusive [inhibitor, single point]
CCCCn1c(=O)[nH]c(=O)c2c1nc(Cn1ncc(Cl)c(Cl)c1=O)n2CCC |  | active: 4.61 µM
CCN(CC)c1nc2c3c(nc4c(c3c1C#N)CC(=O)N4c1ccc(Cl)cc1)NC(C)=N2 |  | inconclusive [inhibitor, single point]
CCN(Cc1cc2cc(OC)ccc2[nH]c1=O)C(=O)Cc1ccc(OC)cc1 |  | inconclusive [inhibitor, single point]
O=C(NCCCN1CCN(c2cccc(Cl)c2)CC1)C1CCC(=O)N1Cc1ccccc1Cl (stereo not given) |  | active: 16.4 µM
Cc1cc(NC(=O)CSc2nc(-c3ccccc3Cl)nc3c2c(=O)n(C)c(=O)n3C)no1 | inactive: -9.16% | 
O=[N+]([O-])c1cc(C(F)(F)F)ccc1N1CCN(S(=O)(=O)c2ccc3ccccc3c2)CC1 |  | inconclusive [inhibitor, single point]

SMILES | activity change, negative = growth inhibition | Potency
O=C(N/N=C\c1c(O)ccc2ccccc12)c1ccc(Cn2cccn2)o1 |  | active: 5.8 µM
CCCS(=O)(=O)c1c(S(=O)(=O)CCC)c2cc(CC)ccn2c1C(=O)c1ccc(OC)cc1 |  | inconclusive [inhibitor, partial curve]
COc1cc(NC(=O)c2ccccc2)c(OC)cc1NC(=O)CN1C(=O)N(C)C2(CCCCC2)C1=O |  | inconclusive [inhibitor, single point]
CSc1ccc(CN2CCC2(C)C(=O)Nc2ccc(C)c(O)c2)cc1 (stereo not given) |  | inconclusive [inhibitor, single point]
Cn1c2ccccc2c2ncn(CCCN3CCOCC3)c(=O)c21 | inactive: -2.6% | 
CC(=O)N(c1nc(CCl)cs1)c1cccc(C)c1C |  | inconclusive [inhibitor, single point]
COc1ccc(CCNC(=O)c2cnc3ccc(C)cn3c2=O)cc1 |  | inconclusive [inhibitor, partial curve]
COc1ccc(CCn2c(N3CCN(C)CC3)nc3c2c(=O)[nH]c(=O)n3C)cc1 | inactive: -11% | 
CC(C)NC(=O)C1(C)CCCN1C(=O)c1ccc2c(c1)C(C)(C)CCC2(C)C (stereo not given) |  | active: 4.61 µM
COC(=O)CCC(C)C1CCC2C3C(C[C@H](O)C12C)C1(C)CC[C@@H](O)CC1C[C@H]3O (stereo not given in full) |  | inconclusive [inhibitor, single point]
CC(C)(C)OC(=O)N[C@@H](C(=O)OC(C)(C)C)c1ccc2c(c1)OCO2 |  | inconclusive [inhibitor, single point]
CCOC(=O)CSC1=N/C(=C/c2ccc(-n3cncn3)cc2)C(=O)N1C(C)=O |  | active: 20.6 µM
CC1CCN(C(=O)CSCc2ccc(Cl)cc2)CC1 |  | inconclusive [inhibitor, single point]
Cc1ccc2nc3c(cc(C(=O)NCCc4ccccc4)c(=N)n3CC3CCCO3)c(=O)n2c1 (stereo not given) |  | active: 20.6 µM
C=CCn1c(=S)[nH]c2ccc(Br)cc2c1=O |  | inconclusive [inhibitor, single point]
O=S(=O)(NCCC1=CCCCC1)c1ccccc1Br |  | inconclusive [inhibitor, single point]
COCCCNC(=S)N/N=C/c1ccccc1O |  | active: 2.59 µM
COc1ccc(OC)c(C(c2nnnn2C(C)(C)C)N2CCc3ccccc3C2)c1 (stereo not given) |  | active: 20.6 µM
CC(C)CS(=O)(=O)c1oc(-c2ccc(F)cc2)nc1S(=O)(=O)c1ccccc1 |  | active: 0.411 µM
COc1ccc(C(C)(NC(C)=O)c2nc(-c3cccc(C(F)(F)F)c3)cs2)cc1 (stereo not given) |  | inconclusive [inhibitor, single point]
COC(=O)c1cc(-c2ccc(S(=O)(=O)N3CCCC(C)C3)cc2)c(C(F)(F)F)s1 (stereo not given) |  | inconclusive [inhibitor, single point]
COc1cccc(C(C(=O)NC(C)(C)C)N(Cc2ccc(C)cc2)C(=O)CCC(=O)Nc2cc(C)on2)c1OC (stereo not given) |  | inconclusive [inhibitor, single point]
